The record followed here is the supplement of paper PMC11417369.

± gives the standard deviation of the averaged measurements. The list shows a part of the results.

For this assay, the system named is PfAP2-I AP2 domain 3 (GST-tagged). Kind of assay: gcPBM binding intensity (ln(normalized median fluorescence intensity)); higher = stronger DNA binding. The essentials:
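For binding intensity, the highest Masliner-normalised natural-log median intensity across replicate spots of either probe orientation was taken. Protein bound to the array was stained with Alexa488 anti-GST antibody and scanned at 488 nm. The protein, GST-tagged P. falciparum DNA-binding domains from E. coli at about 25 μg on average, had been applied for 1 h to an Agilent 4 × 180k array of primer-extended double-stranded 36-bp intergenic genomic probes and negative controls.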
With TTTATTTTGTTTATGGTGCATTTTATGTAAATATAT, the “gcPBM binding intensity (ln)” value came out at 10.3 ± 0.51.

In the case of “TATATATATTTATAATGTACACATATATGTAAATAT [XGTACX_site3695]”, the “gcPBM binding intensity (ln)” value was determined as 7.97 ± 0.29.

With “TGCCCTAACCATACTACACACACTGCTCAAAATAGT [CACACA_site2219]”, the “gcPBM binding intensity (ln)” value came out at 8.4 ± 0.54.

For “TACAATATAAAATACACACACACAAACATATATTTA [CACACA_site5941]”, the “gcPBM binding intensity (ln)” value is 7.78 ± 0.49.

Regarding “ATAATTATATACCATGCACACAAATATTCATACAGG [CACACA_site9343]”, the “gcPBM binding intensity (ln)” value stood at 8.29 ± 0.56.

“AAGAACCATATTTAAACACACATACCTATATAAATA [CACACA_site7553]”: the “gcPBM binding intensity (ln)” value turned out to be 7.68 ± 0.53.

As for “AAAAAATACATACATACACACATATTTATTTATATA [CACACA_site6554]”, the “gcPBM binding intensity (ln)” value was 7.67 ± 0.42.

On to “TTATGCATATATTATGCATGTAGTTTTAAATCACAT [TGCATGCA_site104]”, for which the “gcPBM binding intensity (ln)” value came out at 7.84 ± 0.71.

In the case of “TATATACACATTTTTATACACACTTGTTTTATAAAA [CACACA_site8139]”, the “gcPBM binding intensity (ln)” value was determined as 7.87 ± 0.38.

On to “GCACAAATATATATATATATATATATATATATATAT [GTGCAC_negctrl_site661]”, for which the “gcPBM binding intensity (ln)” value worked out at 9.07 ± 0.54.

On to “AATATATATATAAATAATATACCTATATATTTTTTG [XGTACX_negctrl_site407]”, for which the “gcPBM binding intensity (ln)” value came out at 7.28 ± 0.4.

Turning to “AAAAACAATTTAATCACACATATATGTCACAAAGAT [CACACA_site5043]”, the “gcPBM binding intensity (ln)” value turned out to be 7.91 ± 0.77.

On to “CACTTAAAAAGCTAACGTACAAATACACATATATAA [XGTACX_site1851]”, for which the “gcPBM binding intensity (ln)” value amounted to 7.87 ± 0.37.

For the sequence “ATATTAAATATTATCACACACATAATTATTTCCATA [CACACA_site2334]”, the “gcPBM binding intensity (ln)” value was 8 ± 0.42.

Consider “CAAAATATTTTTTCCTGTACATAATTCCTATTTCAC [XGTACX_site3590]”, for which the “gcPBM binding intensity (ln)” value turned out to be 7.92 ± 0.85.

With “ATATAATAATATGGTTGTACATAAATAACACATGAA [XGTACX_site6592]”, the “gcPBM binding intensity (ln)” value was 7.98 ± 0.31.

In the case of “ATATATATATATATATGTACATACATATTGTTTGGT [XGTACX_site2284]”, the “gcPBM binding intensity (ln)” value was found to be 9.37 ± 0.31.

For the sequence “TAATAATAGAAACACACACACATAGACATATATATA [CACACA_site1307]”, the “gcPBM binding intensity (ln)” value came out at 7.96 ± 0.67.

For “ATGATTATACAAAATATACACACGTGTAGACAAATA [CACACA_site1175]”, the “gcPBM binding intensity (ln)” value worked out at 7.85 ± 0.67.

Regarding “TATTTTCAAAATGTTGTACACACAAAAAAAAAAAAA [CACACA_site8437]”, the “gcPBM binding intensity (ln)” value is 8.29 ± 0.43.

Consider “ATATACTTTTCAATGTGTACTTATGAATATATATGT [XGTACX_site7972]”, for which the “gcPBM binding intensity (ln)” value was 8.02 ± 0.26.

As for TATTTATAAATATGTGTGCACAATTTATTTTATAAT, the “gcPBM binding intensity (ln)” value came out at 11 ± 0.26.

Regarding “TTATTTCTAACATGATGTACTTTTATATTATATAAT [XGTACX_site3574]”, the “gcPBM binding intensity (ln)” value was found to be 7.88 ± 0.44.

For the sequence “TTTTTTTTATATATCTGTACATATATATATATATAT [XGTACX_site8280]”, the “gcPBM binding intensity (ln)” value was 9.3 ± 0.35.

Regarding “AGTAGCGGCGGTATCATGCACACGTATAGATTGTAA [CACACA_site1587]”, the “gcPBM binding intensity (ln)” value was 8.31 ± 0.76.

For “TTGTTTATATATATATGTACATATTTTAAGGCATCC [XGTACX_site6976]”, the “gcPBM binding intensity (ln)” value came out at 8.29 ± 0.3.

In the case of “CCACGTATACGATGCACACGTATGCTTTATATATAG [CACACA_site4108]”, the “gcPBM binding intensity (ln)” value was 8.24 ± 0.48.

With “ATTAAATCCGCACGCACACACACATATTAAGAAAAA [CACACA_site6062]”, the “gcPBM binding intensity (ln)” value was found to be 9 ± 0.014.

As to “GTTGAAAAAAATATATGTACGTATATATGTATGTAT [XGTACX_site8201]”, the “gcPBM binding intensity (ln)” value was found to be 8.23 ± 0.38.

As for “ATTATTACTATATGTGTACACATCAACTGGTTTGAT [CACACA_site5563]”, the “gcPBM binding intensity (ln)” value is 8.18 ± 0.6.

Regarding “TTGGTAAATATATTTTGAATATAAGAAATATAGACG [CACACA_negctrl_site1634]”, the “gcPBM binding intensity (ln)” value is 7.86 ± 0.48.

For the sequence “TATATATATAACAGAATGCACTTTATATGTTCATAT [GTGCAC_site9880]”, the “gcPBM binding intensity (ln)” value stood at 9.52 ± 0.19.

With “TATACGTATACCTATACACACATATATTTATTTATA [CACACA_site6716]”, the “gcPBM binding intensity (ln)” value worked out at 7.89 ± 0.44.

Regarding “GATATCCTTATATTTGCACACACACCCAATAAAATG [CACACA_site1028]”, the “gcPBM binding intensity (ln)” value worked out at 9.54 ± 0.22.

Take “AAAAAATACAGACACACACACACACGCATATAAATA [CACACA_site7644]”: the “gcPBM binding intensity (ln)” value is 7.94 ± 0.48.

Regarding “TAATAAATTCATAATTGTACATTGAAGTATTATGCA [XGTACX_site5121]”, the “gcPBM binding intensity (ln)” value stood at 7.65 ± 0.37.

As to “TTTTTTTATTTTGTATGTACATATCATTTGATATTC [XGTACX_site8449]”, the “gcPBM binding intensity (ln)” value is 7.97 ± 0.73.

Regarding “AAAAAAGAAAAAAAGTGTACAATATTTATTACATAT [XGTACX_site2277]”, the “gcPBM binding intensity (ln)” value came to 7.79 ± 0.43.

Take “GCAAAGCACAAATATGCATGTAGATATAGAATAATG [TGCATGCA_site382]”: the “gcPBM binding intensity (ln)” value came out at 8.32 ± 1.

As to “ATAATCCTTGGACACACACACACACTAGTAAATAAA [CACACA_site4423]”, the “gcPBM binding intensity (ln)” value was found to be 8.29 ± 0.27.

With “AACCCAAAATAATTATGTACATATTTTTAAATATAT [XGTACX_site6487]”, the “gcPBM binding intensity (ln)” value came out at 7.92 ± 0.34.

As to “TTTGTGTATATAACAGTGCAATATTATAAATATAAA [GTGCAC_site9750]”, the “gcPBM binding intensity (ln)” value is 10.5 ± 0.51.

For “CTTAAAGGGAAAAATACACACATATAAATATTATGT [CACACA_site2225]”, the “gcPBM binding intensity (ln)” value turned out to be 7.41 ± 0.46.

“ACTTAATTTTTTTTATGTACTTATTTAAAAAATTTT [XGTACX_site2712]”: the “gcPBM binding intensity (ln)” value was determined as 8.09 ± 0.19.

On to “TTAGTAGTATTATGTAGTACATAATTATCATATCAT [XGTACX_site817]”, for which the “gcPBM binding intensity (ln)” value stood at 8.01 ± 0.28.

Turning to “TAATTATTTTTATATTGTACAATATGTAAATATATA [XGTACX_site592]”, the “gcPBM binding intensity (ln)” value amounted to 7.59 ± 0.23.

Consider “ATAAATAAATAAATCTGTACATATGTATATGTATAT [XGTACX_site4537]”, for which the “gcPBM binding intensity (ln)” value amounted to 7.61 ± 0.36.

Turning to “AATTAAAAAAAAAAAAAAAAAAAAAAATGAAAAAAA [CACACA_negctrl_site1073]”, the “gcPBM binding intensity (ln)” value was determined as 7.42 ± 0.57.

Consider “AAAAAAAAAAAAAAAAGTACATACAACATTATGAAA [XGTACX_site207]”, for which the “gcPBM binding intensity (ln)” value turned out to be 8.78 ± 0.33.

As for “TTTTTTGAATTTAAAAGTACAGGCTTTTACCAAATA [XGTACX_site1356]”, the “gcPBM binding intensity (ln)” value was 7.7 ± 0.45.

For the sequence “CATTTCTATATAAGCACACACGTGGAATTTTTTTTT [CACACA_site5537]”, the “gcPBM binding intensity (ln)” value stood at 9.03 ± 0.41.

Consider “TCATATTATAAATAAATAAATAAATATATATATATA [CACACA_negctrl_site577]”, for which the “gcPBM binding intensity (ln)” value came out at 9.32 ± 0.31.

Regarding “AAATCGTAATATATTTGTACTTATTTGAAAAATCCA [XGTACX_site8141]”, the “gcPBM binding intensity (ln)” value was found to be 7.76 ± 0.33.

Turning to “ATTATTTGAACAACAAAAAAAAAGAAAAGAAAAGAA [CACACA_negctrl_site1031]”, the “gcPBM binding intensity (ln)” value came out at 8.3 ± 1.2.

For the sequence “AACACGCGCAGACACACACACACACGCACATATATA [CACACA_site7104]”, the “gcPBM binding intensity (ln)” value came to 8.35 ± 0.6.

In the case of “TTTTTTTTCTTTTTTTTAAGAAATAAATAAATAATT [XGTACX_negctrl_site137]”, the “gcPBM binding intensity (ln)” value was 7.32 ± 0.16.

On to “TATATTTCATTATATTGTACAAAATATATATATTAT [XGTACX_site4644]”, for which the “gcPBM binding intensity (ln)” value is 7.76 ± 0.4.
